This note sets out measurements from patent US20100183584A1 (UNIVERSITY OF MIAMI, published 2010).

The target in the test is T1, native RGS7-Gβ5 complex from mouse brain extract (mouse, UniProt P62881 1-353; O54829 1-469, limits assumed).
T1 construct: Native complex in a cholate extract of brain membranes; may also carry R7BP; also called native Gβ5-RGS7; Gβ5-RGS complexes (brain)
T1 sequence (looked up) 1: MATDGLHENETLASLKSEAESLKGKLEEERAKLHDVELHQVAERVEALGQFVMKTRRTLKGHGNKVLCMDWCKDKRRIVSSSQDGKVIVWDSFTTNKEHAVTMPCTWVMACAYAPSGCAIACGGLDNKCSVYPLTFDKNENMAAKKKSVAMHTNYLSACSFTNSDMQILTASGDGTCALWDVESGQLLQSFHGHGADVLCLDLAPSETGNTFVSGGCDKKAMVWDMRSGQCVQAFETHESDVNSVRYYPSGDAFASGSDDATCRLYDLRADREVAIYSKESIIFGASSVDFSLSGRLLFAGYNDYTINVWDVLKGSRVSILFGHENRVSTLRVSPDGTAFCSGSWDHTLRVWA
T1 sequence (looked up) 2: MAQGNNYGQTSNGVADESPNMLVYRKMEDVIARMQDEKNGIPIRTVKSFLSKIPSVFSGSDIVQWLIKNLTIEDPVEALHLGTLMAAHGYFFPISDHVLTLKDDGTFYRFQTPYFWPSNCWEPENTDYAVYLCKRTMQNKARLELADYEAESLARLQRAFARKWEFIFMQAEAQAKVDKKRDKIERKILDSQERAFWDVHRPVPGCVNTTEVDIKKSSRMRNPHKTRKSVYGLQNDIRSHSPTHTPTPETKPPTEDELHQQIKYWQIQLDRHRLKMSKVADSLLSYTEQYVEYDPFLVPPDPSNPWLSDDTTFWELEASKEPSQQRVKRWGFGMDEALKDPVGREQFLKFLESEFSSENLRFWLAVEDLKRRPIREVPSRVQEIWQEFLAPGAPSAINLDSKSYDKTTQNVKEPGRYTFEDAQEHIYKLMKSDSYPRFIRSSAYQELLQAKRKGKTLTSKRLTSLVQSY
Description: GST pull-down from mouse brain extract, western blot with anti-RGS7 and anti-Gβ5; D: densitometry [1B, 1D].

B1: GST (other)
chain: not shown
notes: Negative control in pull-down and FRET assays; also called GST alone; immobilized GST
In the case of B1, the binding result is “no binding”.
